In one test the test system is HSkMC. Kind of test: cytotoxicity call (relative viability < 0.9). The conditions noted are these: 10 µM.
A further test has as its system HepG2. Kind of test: cytotoxicity call (relative viability < 0.9). The note with it: 10 µM.
In a further test the test system is S. aureus RN4220. Kind of test: growth inhibition call (relative growth <= 0.2). The note with it: 50 µM.

This is one part of the list.

In the case of `Cc1ccc(S(=O)(=O)N(C)C[C@H]2Oc3ccc(NS(=O)(=O)c4ccccc4)cc3CC(=O)N([C@@H](C)CO)C[C@@H]2C)cc1`, the cytotoxicity call in the test on HSkMC and in the test on HepG2 was “inactive” in each case. For the same compound, in the test on S. aureus RN4220, the growth inhibition call is “inactive”.
With `CCc1cccc(C)c1NC(C)=O`, the cytotoxicity call in the test on HSkMC and in the test with HepG2 was “inactive” in each case. Besides, the growth inhibition call with S. aureus RN4220 was “inactive”.
Turning to `C[C@H](CO)N1C[C@H](C)[C@H](CN(C)C(=O)Nc2cccc3ccccc23)Oc2ncc(/C=C/c3ccccc3)cc2C1=O`, the cytotoxicity call with HSkMC and in the test with HepG2 was “inactive” in each case. In the test on S. aureus RN4220, the growth inhibition call was “inactive”.
As to `C[C@H]1CN([C@@H](C)CO)C(=O)Cc2cc(NC(=O)CCC(F)(F)F)ccc2O[C@H]1CN(C)Cc1ccc(-c2ccccc2)cc1`, the cytotoxicity call in the test with HSkMC was “inactive”. Also, the cytotoxicity call in the test on HepG2 was “active”. Further, the growth inhibition call in the test with S. aureus RN4220 is “inactive”.
`C[C@@H]1CCCCO[C@@H](CN(C)S(C)(=O)=O)[C@@H](C)CN([C@H](C)CO)C(=O)c2cc(NS(=O)(=O)c3ccccc3)ccc2O1`: the cytotoxicity call in the test with HSkMC and in the test on HepG2 was “inactive” in each case. The growth inhibition call with S. aureus RN4220 is “inactive”.
As to `Cc1ccc(S(=O)(=O)Nc2ccc3c(c2)C(=O)N([C@@H](C)CO)C[C@H](C)[C@H](CN(C)S(C)(=O)=O)O3)cc1`, the cytotoxicity call with HSkMC and in the test with HepG2 was “inactive” in each case. Besides, in the test with S. aureus RN4220, the growth inhibition call is “inactive”.
In the case of `C[C@H](O)C#Cc1cnc2c(c1)C(=O)N([C@H](C)CO)C[C@H](C)[C@H](CN(C)Cc1cncnc1)O2`, the cytotoxicity call in the test on HSkMC (human skeletal muscle cells) and in the test on HepG2 was “inactive” in each case. Moreover, the growth inhibition call in the test with S. aureus RN4220 is “inactive”.
On to `C[C@@H]1CCCCO[C@H](CN(C)Cc2ccc(Cl)c(Cl)c2)[C@@H](C)CN([C@H](C)CO)C(=O)c2cc(NC(=O)CCCCCC(=O)Nc3ccccc3N)ccc2O1`, for which the cytotoxicity call in the test with HSkMC and in the test with HepG2 was “inactive” each time. In addition, in the test with S. aureus RN4220, the growth inhibition call was “inactive”.
`C[C@@H]1CN([C@@H](C)CO)C(=O)c2cc(NC(=O)C3CCCCC3)ccc2O[C@@H](C)CCCCO[C@H]1CN(C)C(=O)Nc1ccccc1`: the cytotoxicity call with HSkMC and with HepG2 was “inactive” each time. For the same compound, in the test on S. aureus RN4220, the growth inhibition call is “inactive”.

These data come from the antibiotic and cytotoxicity screens of Wong et al. (2023).
